# Hit rate of the full screen: of about 310,000 compounds, about 14,000 (4.5%) showed an effect of 50% or more. Effects have a minus sign here. This is one part of the list.
# Target: human ether-à-go-go-related gene (hERG) potassium channel (human, UniProt Q12809)
# Experiment: primary screen, population patch clamp on CHO cells stably expressing hERG
# 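Note: peak tail current of the secondary pulse compared with the same well before compound.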
# Sequence of human ether-à-go-go-related gene (hERG) potassium channel (Q12809 whole entry, looked up): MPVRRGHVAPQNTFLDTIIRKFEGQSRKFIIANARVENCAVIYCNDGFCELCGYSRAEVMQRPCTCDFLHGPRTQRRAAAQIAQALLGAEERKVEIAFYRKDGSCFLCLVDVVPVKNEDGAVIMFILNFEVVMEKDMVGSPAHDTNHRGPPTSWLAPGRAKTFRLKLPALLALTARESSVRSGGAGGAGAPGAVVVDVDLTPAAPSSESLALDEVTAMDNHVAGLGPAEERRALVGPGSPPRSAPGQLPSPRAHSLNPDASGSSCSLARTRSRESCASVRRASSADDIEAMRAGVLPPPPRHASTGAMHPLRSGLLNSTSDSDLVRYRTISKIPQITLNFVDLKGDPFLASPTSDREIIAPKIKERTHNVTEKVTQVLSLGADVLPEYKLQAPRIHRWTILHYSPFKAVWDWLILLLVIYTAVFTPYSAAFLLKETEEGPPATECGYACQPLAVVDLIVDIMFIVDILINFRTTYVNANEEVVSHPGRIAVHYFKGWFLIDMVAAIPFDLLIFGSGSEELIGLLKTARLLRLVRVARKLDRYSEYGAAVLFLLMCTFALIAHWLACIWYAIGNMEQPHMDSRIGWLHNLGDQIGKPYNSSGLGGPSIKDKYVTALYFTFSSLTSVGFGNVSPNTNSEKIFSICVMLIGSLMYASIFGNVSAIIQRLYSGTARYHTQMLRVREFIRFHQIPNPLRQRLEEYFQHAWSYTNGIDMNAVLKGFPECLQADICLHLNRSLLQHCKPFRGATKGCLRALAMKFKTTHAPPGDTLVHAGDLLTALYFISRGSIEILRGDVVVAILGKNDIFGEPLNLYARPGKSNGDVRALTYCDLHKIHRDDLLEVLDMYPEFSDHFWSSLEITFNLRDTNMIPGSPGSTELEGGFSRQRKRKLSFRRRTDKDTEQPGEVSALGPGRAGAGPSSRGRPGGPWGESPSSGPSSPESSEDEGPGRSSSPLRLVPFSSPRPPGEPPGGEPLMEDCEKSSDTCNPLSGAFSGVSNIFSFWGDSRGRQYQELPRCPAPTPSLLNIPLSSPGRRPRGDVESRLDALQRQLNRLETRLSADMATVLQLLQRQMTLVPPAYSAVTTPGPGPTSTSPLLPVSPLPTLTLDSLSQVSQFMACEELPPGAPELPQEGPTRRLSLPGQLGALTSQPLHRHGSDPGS
row,SMILES,"hERG current change (%, negative = inhibition) at 10uM [%]"
1,S=C(NCCc1ccccc1)N1CCOCC1,22.6
2,CCN1CCN(C(c2cccs2)C(C)NC(=O)CC(C)C)CC1 (stereo not drawn),-6.37
3,CCOc1ccc(N2C(=O)/C(=C\c3ccc(OC)c(O)c3)S(=O)(=O)C2c2cccc([N+](=O)[O-])c2)cc1 (stereo not drawn),10.1
4,O=C(CN1CCN(Cc2cccc(Cl)c2)C1=O)NCc1ccccn1,6.12
5,Cc1c(CCOC(=O)CC23CC4CC(CC(C4)C2)C3)sc[n+]1Cc1ccccc1.[Cl-],-42.1
6,CCN(CC)C(NC(=O)c1ccccc1)C(=O)c1ccccc1 (stereo not drawn),-9
7,Cc1ccc(CN2CCNC(=O)C2CC(=O)O)o1 (stereo not drawn),12.5
8,CCCCSCc1cc(C(=O)O)oc1C(C)(C)C,-1.69
9,Br.Cc1ccc(-c2csc3nc(=O)c(C)nn23)cc1,-17.5
10,C[C@@H]1CC[C@H]2[C@@H](C)C(=O)O[C@@H]3O[C@@]4(C)CC[C@@H]1[C@]32OO4,0.204
11,COC(=O)C(C#N)c1nc2ccccc2nc1N1CCN(Cc2ccc3c(c2)OCO3)CC1 (stereo not drawn),-2.48
12,COC(=O)c1ccc(N2CN=C(c3ccc(C)cc3)NC2=S)cc1,9.09
13,CCOc1ccc(CN2CCN(Cc3cn(CC)nc3C)CC2CCO)cc1 (stereo not drawn),-62
14,CCOc1ccc2[nH]c3c(NCCN(C)C)ncnc3c2c1,-19
15,Cc1cc(C)n(-c2ccc(C(=O)N3CCC(CO)(Cc4ccccc4)CC3)cc2)n1,9.21
16,COc1ccc(OC)c2[nH]c(=O)c(CCNC(=O)CC(C)C)cc12,-3.44
17,Cc1cnc(NC(=O)COc2ccccc2)s1,5.14
18,CCN(CC)C(=S)Oc1ccc(Cl)cc1Cl,0.427
19,CN(C)/C=N/c1c(C#N)cnn1-c1nc2ccccc2s1,-0.379
20,Cc1ccc(S(=O)(=O)NNC(=O)c2cccc(O)c2)cc1,-1.05
21,CCCOc1ccc(C(=O)N2CCCc3ccccc32)cc1,-26
22,Fc1cnc(N2CCOCC2)nc1N1CCc2ccccc21,-19.5
23,Cc1cc(C)c2nc(-c3ccccn3)cc(C(=O)Nc3ccc(S(=O)(=O)Nc4cc(C)on4)cc3)c2c1,6.35

row,SMILES,"hERG current change (%, negative = inhibition) at 10uM [%]"
1,COC(=O)c1cc(OC)c(OC)cc1NC(=O)c1ccc(C)cc1,-0.935
2,CC(C)(C)OC(=O)N1CCN(C(=O)c2nc[nH]c2C(=O)N2CCN(c3ccccc3)CC2)CC1,17.9
3,Cc1cc(C)c(NC(=O)CN2C(=O)NC(CCc3ccccc3)C2=O)c(C)c1 (stereo not drawn),0.776
4,CCn1cc(S(=O)(=O)Nc2ncccn2)cn1,4.17
5,Cc1cc(S(=O)(=O)N2CCOCC2)ccc1OCC(=O)NCc1ccco1,-22
6,COc1ccc(C=O)cc1COc1ccc(F)cc1F,-6.22
7,CSc1nnc(C2CCN(CC(=O)Nc3ccccc3N3CCOCC3)CC2)n1C(C)C,-6.96
8,Nc1cc(OC(=O)c2ccc(F)cc2)nn1S(=O)(=O)c1ccccc1,12.7
9,Cn1cc(C(=O)c2ccccc2)c2ccccc21,-6.04
10,CCOc1ccc(NC(=O)CSc2ccc(-c3ccco3)nn2)cc1,-2.59
11,COC(=O)c1cc(S(=O)(=O)N2CCN(c3ccccc3)CC2)c[nH]1,7.6
12,O=C(c1cccc(F)c1)N1CCCN(C(=O)c2cccc(F)c2)CC1,-6.95
13,Nc1cccc(NP(=O)(c2ccccc2)c2ccccc2)c1,11.7
14,CC1CCCCC1NC(=O)c1ccc(S(=O)(=O)NCc2ccco2)cc1 (stereo not drawn),7.19
15,O=C(NCc1ccc2c(c1)OCO2)C(=O)NCC1OCCCN1S(=O)(=O)c1cc(F)ccc1F (stereo not drawn),-3.49
16,COC(=O)C1CCN(C(=O)/C=C/c2ccc3c(c2)OCO3)CC1,11.4
17,Cc1ccc(NC(=O)C2CCN(C(=O)NCc3ccccc3)CC2)cc1C,13.9
18,Cc1sc(NC(=O)C2CCCCC2C(=O)O)c(C(N)=O)c1C (stereo not drawn),1.69
19,CCSc1ncnc2sc(C)c(C)c12,-11.4
20,NC(=O)c1sc(=S)n(-c2ccc(Br)cc2)c1N,-23
21,CCc1nnc(NC(=O)CN2CCN(Cc3ccc(F)cc3)CC2)s1,-13.6
22,Nc1nc(SCc2ccc(Cl)c(Cl)c2)n[nH]1,10.4
